The source of these data is article PMC12136788.

T1: UNK ZnF1-3 (human, UniProt Q9C0B0 31-174)
T1 sequence: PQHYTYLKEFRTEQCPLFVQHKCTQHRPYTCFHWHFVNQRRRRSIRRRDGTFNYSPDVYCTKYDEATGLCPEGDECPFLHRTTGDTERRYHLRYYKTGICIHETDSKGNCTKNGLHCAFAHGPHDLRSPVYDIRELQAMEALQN

B1: chr2:117004238:117004239:+_ENSMUSG00000027351_ENSMUST00000028829|mus_mus|FALSE|FALSE (ssRNA)
RNA: GGGAGUUCUACAGUCCGACGAUCUUAACUACUCAACACAUAUGGAAUGUGGUGGCAGAUAUGUGCACAUCUACCUCAGAACUAGGAAGGGCAAGAAAAGUUUAAUAUGUCAUAGUUCGUACCUUACAUUUAGUUAAAUAUAAACAACAGAGGAUUGAGCAUCA
B2: chr6:86333760:86333761:-_ENSG00000135316_ENST00000355238|hu_mus|hu_hu_hu_mus_True|18_18 (ssRNA)
RNA: GGGAGUUCUACAGUCCGACGAUCUUCCUCAAGAAUCUGCUCCUUGGUUUUACUCUUAGGAAUCGAGCCCACAAAAAGCCUAUUGUUGGCAACUGAGAUGCAGACACCAAUGUGCUUUCCAGAACGAAUUUCAUGAUUAUUAUACAACAGAGGAUUGAGCAUCA
B3: chr11:18422405:18422406:+_ENSG00000134333_ENST00000379412|hu_hu|FALSE|FALSE (ssRNA)
RNA: GGGAGUUCUACAGUCCGACGAUCCAGCUUGGAGUUUGCAGUUACAUUAUAGUCUUUGCCAGAGACAAUCUUUGGUGUUCUAAGGAAAAGGCUGCCAUGUUGGAGAUCCAUCAUCUCUCCCUUCAAUUUGUCUUCGAUGACAUCCAACAGAGGAUUGAGCAUCA
B4: 134633536_134633656_1219_CDS_ENSMUSG00000042423_ENSMUST00000048896|mouse|control|control (ssRNA)
RNA: GGGAGUUCUACAGUCCGACGAUCUGGUGGUGGAGGAGCCAAACGGCUGUAUAGCAGUGGAUGAGCAGGGUCUAGACUAUAGAGGCGGGCAGCAGCCAUGGCCCCUGGUCCAGUCAACUCCUCACCUGCCUCAUAGAAGCGUGGCAACAGAGGAUUGAGCAUCA
B5: chr4:140556289:140556290:+_ENSMUSG00000036622_ENSMUST00000037055|mus_mus|mus_mus_mus_hu_False|48_58 (ssRNA)
RNA: GGGAGUUCUACAGUCCGACGAUCGAUGGAGCUCACCAGGCCCCCUUUUGCCGUGCAGAACCCUGUGCGGGUCACCACUGCUAGCACACGGGGUCCCACAUAGGCCCGGGCCUGCAAGAUGAGGGUCCCGCAGAAGAGUGUGUGCAACAGAGGAUUGAGCAUCA
B6: 78622650_78622770_146_3pUTR_ENSG00000078596_ENST00000373298|human|control|control (ssRNA)
RNA: GGGAGUUCUACAGUCCGACGAUCACGUCUUGCCGCGCCUCCUCCUUUUGCACGGCGGUAGGGGUAUUGAAGGCGAUUUUCACCAUAGUGAAUCUUCGGGCUGCGCGGUAAGGCGCUGCUGGAAUCAGCGUCCUGGGCUGCAGACAACAGAGGAUUGAGCAUCA
B7: chr16:46732117:46732118:+_ENSG00000091651_ENST00000219097|hu_hu|motif|central (ssRNA)
RNA: GGGAGUUCUACAGUCCGACGAUCCAAGGGACUGCCAUUCACUUAAAGCAAAAUGGCUCCAAUUCCGUUUAUCUAUCGGUCGGUCGGUCUAUCUAUCUAUCCAUCUAUCUAUCUAUCUAUCUAUAAGUCUCGCUCUGUCACCCACAACAGAGGAUUGAGCAUCA
B8: chr9:14812383:14812384:-_ENSMUSG00000031934_ENSMUST00000164273|mus_mus|mus_mus_mus_hu_True|88_98 (ssRNA)
RNA: GGGAGUUCUACAGUCCGACGAUCAUAGCCCAGGUAGAUACAUGCCAACAGUAUAACGAUGAGUGUCAGCAGGCGGCAGCUAAUGUACUUGAUGAUUAAAUUAUUAGAAUUUUUCUUUGUCUUCAAGUACUGCUCCACAAUUGGCAACAGAGGAUUGAGCAUCA
B9: chr12:39763582:39763583:-_ENSG00000139116_ENST00000544797|hu_mus|hu_hu_hu_mus_False|18_78 (ssRNA)
RNA: GGGAGUUCUACAGUCCGACGAUCCUCUAGGAACUGGGCAUUCACUUUGAAUUCAGGAGCAGGAAGCCCGUUUUUAAUCGCUGAGGUCUUUUUCUCAUCAAUACUCUUGAACAGGUGUUUAACAGCUCGAGAGAUGAUGCCCUGCAACAGAGGAUUGAGCAUCA
B10: chr17:65740002:65740003:+_ENSG00000130935_ENST00000581375|hu_hu|hu_hu_hu_mus_False|38_68 (ssRNA)
RNA: GGGAGUUCUACAGUCCGACGAUCAACAAAUCUUUCUUCCCUGGACGAACAGGAAGAUUCAUAUUAACUUUAUAAAAUAUCCAUCAAGUUAGGUGUGUAAUAUCAGACUUUACUCCCAGCACUUUGGGAGGUGGAUCUCUGAGUCAACAGAGGAUUGAGCAUCA
B11: chr4:130320001:130320002:+_ENSMUSG00000028580_ENSMUST00000105991|mus_mus|motif|central (ssRNA)
RNA: GGGAGUUCUACAGUCCGACGAUCCGCAGCCUGGAGGAUUUCAUUGAAGACAAGCUGGCGCUCAGCUGCUGUGGCACGCUCGGGUUUCAGCUGAAUGAAUCUAGAGCCAUGCUGGUCUUGAGAAAAUUCCAUUAUAUGCCCAGCCAACAGAGGAUUGAGCAUCA
B12: chr1:46159212:46159213:+_ENSG00000159596_ENST00000372025|hu_mus|hu_hu_hu_mus_True|8_48 (ssRNA)
RNA: GGGAGUUCUACAGUCCGACGAUCUCUGAUCCCUCCCAAGAAAGCUAGGAAACCGGCUCCAUAAGCCAUCUGAGUGAAAGCUAGGACGGGAAUAUAAGACUUUGUUAUUACCAUGAGAAGUGGGGGAGCAACGAAGGGGAUUAACAACAGAGGAUUGAGCAUCA
B13: chr13:100192331:100192332:-_ENSMUSG00000052727_ENSMUST00000064762|mus_hu|FALSE|FALSE (ssRNA)
RNA: GGGAGUUCUACAGUCCGACGAUCGCAAAUGAUUAAAUCUUAAUUAAAUGAGUAUUGGAAAGCUCCUAGACUGCAUAAGCUAUUGGAGACACUUAAAACAUUCAUAUACACUGGGGAAACCAUUCACUAUGAUAUGUAACGUUACAACAGAGGAUUGAGCAUCA
B14: chr16:32084594:32084595:-_ENSMUSG00000023791_ENSMUST00000096109|perfect_dup|FALSE|FALSE (ssRNA)
RNA: GGGAGUUCUACAGUCCGACGAUCAGGAAGCAUUUAACUACAUAAAACUUAUAGGGAAAAAUGGCCAUAUUUGAAAACUGCUACAAGGAUCAAUGUAGAGCACAGGAUUGUAAUGAGCAGAGUCACAGAACAUACUAGAGAGGUCAACAGAGGAUUGAGCAUCA
B15: chr5:80785125:80785126:-_ENSG00000145687_ENST00000509013|hu_hu|motif|central (ssRNA)
RNA: GGGAGUUCUACAGUCCGACGAUCUGGCUGACUUCCUGGGACACCUCCAAGUGCCUGAAAGAACCCUGGUGGUACAGGACCGGCUGGCAUGCCAUCUCCUGGGGGAAUGUUUCCUAGCACUGGACUGGGAGCUGCUGCAGCACUCAACAGAGGAUUGAGCAUCA
B16: chr3:57569730:57569731:-_ENSG00000168374_ENST00000303436|hu_mus|motif|central (ssRNA)
RNA: GGGAGUUCUACAGUCCGACGAUCAUAUUCUACUGUUUCCACAUUAAAACCAAUGGUAGGAAUGGUGGUGACUAUUUCCCCGGAUUUCAGUUUAUACAGAAUUGUCGUCUUGCCAGCAGCAUCCAAUCCAACCAUCAAAAUGCGCAACAGAGGAUUGAGCAUCA
B17: chr1:174973770:174973771:+_ENSG00000116161_ENST00000406752|hu_mus|motif|central (ssRNA)
RNA: GGGAGUUCUACAGUCCGACGAUCGAGUUCCGUCUCAAUCUUGGACUUUUCACUUGUAAGAGUAUCACGUAGUCUUUUCCGGGUGGACUUUUCCAGCAAUACUUUGACCUCUUCUAGGUCUUUCUGCAACUCUUCCAAAACGGACAACAGAGGAUUGAGCAUCA
B18: chr2:15768762:15768763:+_ENSG00000079785_ENST00000233084|hu_hu|motif|central (ssRNA)
RNA: GGGAGUUCUACAGUCCGACGAUCGGGCAGAGUGACAUUUAUAACAUAAGGAACACCGUGGAUAUCAAUUCCUCUAGCAGCGGCAUCUGUGCAAAUCAAGAAUCUUACAUCUCCUUUCUUAAAUCUUUCCAAGUUUUGCUUUCUCAACAGAGGAUUGAGCAUCA
B19: 169811557_169811677_2132_CDS_ENSG00000000460_ENST00000359326|human|control|control (ssRNA)
RNA: GGGAGUUCUACAGUCCGACGAUCUUUAAUGUUUAAAAAAGCCCAAAGCUGACUCACAACUUCGAUAAUUGCAGUUUGUUUUCCUGUAUCCAAAGCUUCACCAGCAGAAUUACAUACUGCAAGCAAAGCAGACAGUACUGUGUUCAACAGAGGAUUGAGCAUCA
B20: chr21:34901235:34901236:-_ENSG00000159131_ENST00000381815|hu_mus|FALSE|FALSE (ssRNA)
RNA: GGGAGUUCUACAGUCCGACGAUCCAUGCCGUCUACUGCUCUCUGAAGAAUAGUGUUCUUAAUUUUUACUAACAAGUCCUUAGAAACCUGAGGUGCUGGGCAGUAGGCUCCCAUCCCCCCGGUGUUGGGGCCUUCGUCUCCAUCCAACAGAGGAUUGAGCAUCA
B21: chr16:38184571:38184572:+_ENSMUSG00000022812_ENSMUST00000023507|mus_mus|motif|central (ssRNA)
RNA: GGGAGUUCUACAGUCCGACGAUCCAGCUGAUACAUAUACAACUUGACAUAGAUCACAGGGAGUGUCUGCUUGGCUCGACGGUAGUGUCUGGCGACUCUGUACACUGUCUCCGGAACAUAGUCCAGCACCAGGUUAAGGUAGACCAACAGAGGAUUGAGCAUCA
B22: chr6:117881578:117881579:-_ENSG00000047932_ENST00000052569|hu_hu|motif|central (ssRNA)
RNA: GGGAGUUCUACAGUCCGACGAUCUUUAAUGUAGAAGAUGCCAUCUUUAUUUACAGGCUAAUAAAAAAAUAUUAAACUCAACGGGAUAUAAUACAUUAUCAUAAAUGCAAUAGAUUUGAGGCCAACCAUAAGUGUAAGACUGGACAACAGAGGAUUGAGCAUCA

Some of the results follow.

The experiment has as its target T1, UNK ZnF1-3. In words: nsRBNS (natural sequence RNA bind-n-seq); RBNS binding buffer (assumed for nsRBNS): 25 mM Tris pH 7.5, 150 mM KCl, 3 mM MgCl2, 0.01% Triton X-100, 500 ug/ml BSA, 20 U/ml SUPERase-In, 4 C; UNK is unkempt and MSI1 is Musashi-1; names of the RNAs are library labels; protein concentration not given here; high values mean tight binding.
In turn, B1 showed a binding signal of 0.923 enrichment R.
B2 displayed a binding signal of 0.983 enrichment R.
The figure for B3 is 0.551 enrichment R; for B4 it is 1.59 enrichment R; for B5 it is 0.957 enrichment R.
The molecule B6 displayed a binding signal of 0.572 enrichment R.
The figure for B7 is 0.842 enrichment R; for B8 it is 1.67 enrichment R; for B9 it is 1.53 enrichment R.
With B10, the binding signal stood at 0.93 enrichment R.
The figure for B11 is 1.92 enrichment R.
The figure for B12 is 1.48 enrichment R; for B13 it is 1.61 enrichment R.
With B14 the figure was 1.72 enrichment R; with B15, 0.959 enrichment R.
On to B16, for which the binding signal amounted to 0.76 enrichment R.
With B17 the figure was 0.531 enrichment R.
The figure for B18 is 1.42 enrichment R; for B19 it is 1.12 enrichment R; for B20 it is 0.927 enrichment R.
The figure for B21 is 0.843 enrichment R.
On to B22, for which the binding signal is 1.5 enrichment R.
